# Experimental data: PubChem BioAssay (NCATS)
# The shares of active, inactive and inconclusive entries below differ from those in the screen. For some assays here: A potency beside an inconclusive call is a rough fit, not a confirmed value. Activity calls are given as the source filed them. Calls follow the shape of the dose curve; as a rule, active = well fitted curve in the direction sought with a large enough effect; inconclusive = small, poorly fitted or top-dose-only effect, or another doubt; inactive = no such curve, though single readings can be large; an effect the other way counts as inactive or inconclusive.
# Assays:
# [1] = qHTS for Inhibitors of Ubiquitin-specific Protease USP2a Using CHOP2 as the Reporter: K633 Counterscreen (AID 652168)
# Outline: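 Cell-free interference counterscreen without USP2a: compounds pinned into enzyme-free buffer (20 mM Tris pH 8, 2 mM beta-mercaptoethanol, 0.05% Chaps), then DiUb K48-4IQF substrate added (100 nM stock); fluorescence read kinetically, Ex 525/Em 598.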
# [2] = molecular target: Rap guanine nucleotide exchange factor 3 (Homo sapiens) (UniProt O95398); assay: Confirmatory qHTS for antagonist of cAMP-regulated guanine nucleotide exchange factor 3 (EPAC1) (AID 1645880); conditions: EPAC1 Rap1B-BODIPY-GDP exchange, fluorescence; activity, negative = inhibition: at 115 µM (top of the series); also: nearly all actives have a fitted effect of over 55% in size;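 as to activity, negative = inhibition: plate controls were DMSO only for no effect and full effect of the ATA control for full effect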
# Outline: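 Nucleotide exchange uses 100 nM EPAC1, 250 nM RAP1B-BODIPY-GDP and 50 uM GDP, with compounds in a concentration-titration series. After 5 min at room temperature, fluorescence (480 nm ex/540 nm em) is read every 5 min for 30 min. Data are normalized to control ATA and DMSO.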
# [3] = molecular target: Rap guanine nucleotide exchange factor 3 (Homo sapiens) (UniProt O95398); assay: Confirmatory qHTS for agonist of cAMP-regulated guanine nucleotide exchange factor 3 (EPAC1) (AID 1645881); conditions: EPAC1 Rap1B BODIPY-GDP exchange fluorescence; activation: at 154 µM (top of the series), 100% = cAMP control response; also: nearly all actives have a fitted effect of over 75% in size;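 as to activation: EPAC1 catalysed release of BODIPY-GDP from Rap1B seen as fluorescence loss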
# [4] = molecular target: Rap guanine nucleotide exchange factor 4 (Homo sapiens) (UniProt Q8WZA2); assay: Confirmatory qHTS for antagonist of cAMP-regulated guanine nucleotide exchange factor 4 (EPAC2) (AID 1645885); conditions: activity change, negative = inhibition: at 12.7 µM (top of the series) unless noted; also: nearly all actives have a fitted effect of over 25% in size; as to activity change, negative = inhibition: % is scaled to controls: 0 for no effect and ±100 for the full control effect
# [5] = molecular target: Rap guanine nucleotide exchange factor 3 (Homo sapiens) (UniProt O95398); assay: Counterscreen qHTS for agonist of cAMP-regulated guanine nucleotide exchange factor 3 (EPAC1) (AID 1645889); conditions: EPAC1 Rap1B-BODIPY-GDP exchange, fluorescence; activation: at 154 µM (top of the series) unless noted; also: nearly all actives have a fitted effect of over 40% in size; as to activation: % of control where 0% means no effect
# Outline: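 Rap1B–BODIPY-GDP (250 nM) with 50 uM GDP; compounds pin-transferred to 9.74 nM–152 uM final (activator) or from 7.32 nM upwards (inhibitor). Fluorescence Ex/Em 480/540 nm read at 5 and 30 min, then after adding cAMP or buffer, at room temperature.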
# [6] = molecular target: RecQ-like DNA helicase BLM (Homo sapiens) (UniProt P54132); assay: qHTS for Inhibitors of WRN Helicase: BLM Helicase Counterscreen for WRN Inhibitors (AID 720503); also: nearly all actives have a fitted effect of over 60% in size
# Outline: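 BLM (1 nM) was preincubated with compounds for 15 min at room temperature in Tris-HCl pH 8.0, 50 mM NaCl, 2 mM MgCl2 buffer. Unwinding started with 100 nM DNA and 2 mM ATP (final); red fluorescence was read twice, 15 min apart.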
# [7] = molecular target: Cytochrome P450 3A4 (Homo sapiens) (UniProt P08684); assay: qHTS Assay for Inhibitors and Substrates of Cytochrome P450 3A4 (AID 884); conditions: recombinant CYP3A4, Luciferin-PPXE luminescence; activity change, negative = inhibition: at 57.1 µM (top of the series); also: nearly all actives have a fitted effect of over 50% in size
# Outline: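 20 nM human CYP3A4 with 25 uM Luciferin-PPXE (at KM) in 200 mM KPO4, preincubated 10 min with compound; NADPH regeneration started a 60 min RT reaction. Luciferin detected by luminescence, normalized to 57 uM ketoconazole as full inhibition.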
# [8] = molecular target: Ubiquitin carboxyl-terminal hydrolase 1 (Homo sapiens) (UniProt O94782); assay: Inhibitors of USP1/UAF1: Pilot qHTS (AID 504865);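 also: rhodamine fluorescence freed from ubiquitin-rhodamine substrate followed over time; nearly all actives have a fitted effect of over 35% in size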
# Outline: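 USP1/UAF1 complex (1nM) preincubated with compound 15 min at room temperature, then Ub-Rho substrate (150nM final) added. Fluorescence read kinetically at 480/540 nm, 6 reads every 60 seconds. Buffer: 50mM HEPES pH 7.8, 0.5mM EDTA, 0.1 mg/ml BSA, 1mM TCEP, 0.01% Tween-20.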
# Potency is read from the fitted curve at half-maximal effect; tags tell the direction and shape of the fitted curve.
# UniProt Q8WZA2, sequence (Q8WZA2 whole entry, looked up): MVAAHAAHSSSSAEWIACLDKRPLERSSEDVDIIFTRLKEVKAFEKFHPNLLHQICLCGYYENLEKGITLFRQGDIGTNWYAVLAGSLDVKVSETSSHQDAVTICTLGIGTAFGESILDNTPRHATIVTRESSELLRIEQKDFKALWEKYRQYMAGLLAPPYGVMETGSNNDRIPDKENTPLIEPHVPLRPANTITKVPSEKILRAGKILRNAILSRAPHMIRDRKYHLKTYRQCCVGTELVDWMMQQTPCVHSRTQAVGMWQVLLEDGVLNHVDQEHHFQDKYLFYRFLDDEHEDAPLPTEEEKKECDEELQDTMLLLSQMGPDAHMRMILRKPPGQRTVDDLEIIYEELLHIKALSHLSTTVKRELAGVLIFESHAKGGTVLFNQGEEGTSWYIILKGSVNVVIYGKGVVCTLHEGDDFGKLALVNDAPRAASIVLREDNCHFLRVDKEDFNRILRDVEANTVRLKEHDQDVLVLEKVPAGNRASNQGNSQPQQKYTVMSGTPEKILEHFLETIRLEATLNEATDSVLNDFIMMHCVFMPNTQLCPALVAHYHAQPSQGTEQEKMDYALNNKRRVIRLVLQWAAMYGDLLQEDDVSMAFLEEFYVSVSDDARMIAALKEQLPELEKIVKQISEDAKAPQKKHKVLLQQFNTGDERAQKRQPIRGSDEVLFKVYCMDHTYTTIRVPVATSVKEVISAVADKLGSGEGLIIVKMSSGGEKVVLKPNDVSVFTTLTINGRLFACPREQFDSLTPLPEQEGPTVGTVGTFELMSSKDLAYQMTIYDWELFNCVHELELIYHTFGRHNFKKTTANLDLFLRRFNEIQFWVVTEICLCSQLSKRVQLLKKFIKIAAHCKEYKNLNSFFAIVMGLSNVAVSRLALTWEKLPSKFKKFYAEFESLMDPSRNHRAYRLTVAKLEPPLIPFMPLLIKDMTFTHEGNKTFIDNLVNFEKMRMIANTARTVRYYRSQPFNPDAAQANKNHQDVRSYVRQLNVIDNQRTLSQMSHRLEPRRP
# UniProt O95398, sequence (O95398 whole entry, looked up): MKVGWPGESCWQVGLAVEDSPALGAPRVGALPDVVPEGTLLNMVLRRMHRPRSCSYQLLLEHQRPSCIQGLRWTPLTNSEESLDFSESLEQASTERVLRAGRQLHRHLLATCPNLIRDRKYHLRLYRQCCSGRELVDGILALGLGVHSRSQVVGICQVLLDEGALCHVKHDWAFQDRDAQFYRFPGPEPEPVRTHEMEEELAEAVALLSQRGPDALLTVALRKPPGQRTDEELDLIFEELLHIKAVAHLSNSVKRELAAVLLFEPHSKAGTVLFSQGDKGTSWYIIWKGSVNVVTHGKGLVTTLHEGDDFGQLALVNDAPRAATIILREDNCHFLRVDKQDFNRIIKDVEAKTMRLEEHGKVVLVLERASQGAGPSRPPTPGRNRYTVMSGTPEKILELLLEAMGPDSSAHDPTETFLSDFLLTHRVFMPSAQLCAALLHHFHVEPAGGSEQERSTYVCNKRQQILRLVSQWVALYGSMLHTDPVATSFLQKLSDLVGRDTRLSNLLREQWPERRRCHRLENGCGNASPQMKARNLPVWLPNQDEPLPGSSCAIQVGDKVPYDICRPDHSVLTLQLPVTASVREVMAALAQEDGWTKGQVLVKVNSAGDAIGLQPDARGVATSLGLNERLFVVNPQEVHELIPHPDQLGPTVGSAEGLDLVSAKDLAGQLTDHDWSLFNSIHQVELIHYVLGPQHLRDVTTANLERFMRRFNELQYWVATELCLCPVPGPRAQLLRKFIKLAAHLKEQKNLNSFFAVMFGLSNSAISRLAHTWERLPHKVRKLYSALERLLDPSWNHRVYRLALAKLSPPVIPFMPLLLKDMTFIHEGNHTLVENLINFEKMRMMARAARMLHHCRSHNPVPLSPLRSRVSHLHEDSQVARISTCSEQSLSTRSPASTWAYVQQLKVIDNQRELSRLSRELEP
# UniProt O94782, sequence (O94782 whole entry, looked up): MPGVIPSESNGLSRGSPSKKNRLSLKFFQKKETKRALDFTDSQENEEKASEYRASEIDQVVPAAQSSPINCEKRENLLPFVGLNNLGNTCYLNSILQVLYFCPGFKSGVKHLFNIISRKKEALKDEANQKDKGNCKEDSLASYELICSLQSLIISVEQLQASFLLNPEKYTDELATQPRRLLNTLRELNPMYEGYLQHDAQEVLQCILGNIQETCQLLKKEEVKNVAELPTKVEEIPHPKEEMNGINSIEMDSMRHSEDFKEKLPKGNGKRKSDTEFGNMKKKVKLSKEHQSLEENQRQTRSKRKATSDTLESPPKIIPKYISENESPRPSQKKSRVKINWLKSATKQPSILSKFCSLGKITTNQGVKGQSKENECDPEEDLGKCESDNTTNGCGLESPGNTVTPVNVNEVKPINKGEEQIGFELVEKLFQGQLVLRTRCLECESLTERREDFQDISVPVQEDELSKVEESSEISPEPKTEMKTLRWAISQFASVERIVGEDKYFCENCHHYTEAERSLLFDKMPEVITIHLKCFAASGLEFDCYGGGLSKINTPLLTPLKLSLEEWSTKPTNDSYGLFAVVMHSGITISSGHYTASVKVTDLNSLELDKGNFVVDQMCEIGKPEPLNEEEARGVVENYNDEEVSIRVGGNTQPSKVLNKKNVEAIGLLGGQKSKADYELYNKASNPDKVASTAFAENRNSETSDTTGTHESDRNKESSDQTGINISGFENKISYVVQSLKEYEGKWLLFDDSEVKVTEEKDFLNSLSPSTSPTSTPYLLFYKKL
# UniProt P54132, sequence (P54132 whole entry, looked up): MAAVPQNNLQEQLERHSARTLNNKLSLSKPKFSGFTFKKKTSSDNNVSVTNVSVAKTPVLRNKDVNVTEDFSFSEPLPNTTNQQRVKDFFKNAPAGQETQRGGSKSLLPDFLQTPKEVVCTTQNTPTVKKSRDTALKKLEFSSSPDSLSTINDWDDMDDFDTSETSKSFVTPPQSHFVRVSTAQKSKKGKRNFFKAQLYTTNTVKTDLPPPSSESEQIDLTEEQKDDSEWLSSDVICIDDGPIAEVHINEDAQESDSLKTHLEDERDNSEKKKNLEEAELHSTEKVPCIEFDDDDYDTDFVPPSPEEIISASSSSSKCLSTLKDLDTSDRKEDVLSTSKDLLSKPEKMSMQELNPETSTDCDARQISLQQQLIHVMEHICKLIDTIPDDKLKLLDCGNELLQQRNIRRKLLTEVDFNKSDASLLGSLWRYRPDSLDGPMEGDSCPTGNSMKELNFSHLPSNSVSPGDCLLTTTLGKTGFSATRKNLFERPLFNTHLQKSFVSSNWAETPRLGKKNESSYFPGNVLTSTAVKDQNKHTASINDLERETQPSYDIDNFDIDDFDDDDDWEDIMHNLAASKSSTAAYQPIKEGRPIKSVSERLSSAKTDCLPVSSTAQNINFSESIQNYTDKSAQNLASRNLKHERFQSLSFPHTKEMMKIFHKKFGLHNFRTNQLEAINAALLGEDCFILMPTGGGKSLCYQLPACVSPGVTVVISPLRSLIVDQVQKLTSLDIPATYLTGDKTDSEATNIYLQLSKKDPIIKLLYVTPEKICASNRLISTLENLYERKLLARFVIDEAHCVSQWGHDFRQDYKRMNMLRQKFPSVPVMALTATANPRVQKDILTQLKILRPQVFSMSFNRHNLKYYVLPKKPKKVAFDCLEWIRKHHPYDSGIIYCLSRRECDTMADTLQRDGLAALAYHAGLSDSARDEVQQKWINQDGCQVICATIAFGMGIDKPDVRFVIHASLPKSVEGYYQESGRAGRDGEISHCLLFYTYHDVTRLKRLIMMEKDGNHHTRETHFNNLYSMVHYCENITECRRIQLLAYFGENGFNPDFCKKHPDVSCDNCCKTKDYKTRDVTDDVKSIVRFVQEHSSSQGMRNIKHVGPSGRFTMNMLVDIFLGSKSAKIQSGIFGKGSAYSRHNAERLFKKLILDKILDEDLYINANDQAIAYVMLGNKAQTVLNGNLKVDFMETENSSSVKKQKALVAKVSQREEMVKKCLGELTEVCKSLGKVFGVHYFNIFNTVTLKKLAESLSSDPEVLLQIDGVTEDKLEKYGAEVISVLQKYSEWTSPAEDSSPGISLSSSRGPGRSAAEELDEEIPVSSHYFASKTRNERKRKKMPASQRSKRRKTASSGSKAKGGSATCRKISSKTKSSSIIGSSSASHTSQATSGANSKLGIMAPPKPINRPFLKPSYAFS
# UniProt P08684, sequence (P08684 whole entry, looked up): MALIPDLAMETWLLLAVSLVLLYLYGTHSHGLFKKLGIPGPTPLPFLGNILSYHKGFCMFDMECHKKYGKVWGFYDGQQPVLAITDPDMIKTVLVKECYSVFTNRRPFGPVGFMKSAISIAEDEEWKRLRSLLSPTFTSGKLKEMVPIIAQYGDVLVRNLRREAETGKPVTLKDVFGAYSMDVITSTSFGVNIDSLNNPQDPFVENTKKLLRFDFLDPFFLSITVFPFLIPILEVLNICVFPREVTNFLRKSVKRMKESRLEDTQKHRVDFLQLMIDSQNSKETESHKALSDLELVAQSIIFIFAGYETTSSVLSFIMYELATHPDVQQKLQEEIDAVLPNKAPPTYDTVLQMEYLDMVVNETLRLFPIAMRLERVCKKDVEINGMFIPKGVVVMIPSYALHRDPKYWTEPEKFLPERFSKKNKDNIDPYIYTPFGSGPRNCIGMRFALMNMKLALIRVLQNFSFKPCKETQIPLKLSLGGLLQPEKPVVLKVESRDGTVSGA
compound,measurement,setting,value
CC(=O)NS(=O)(=O)c1ccc(NC(=O)c2cc(-c3ccc(C)c(C)c3)nc3ccccc23)cc1,Potency,[1],"inconclusive: 7.69 µM [inhibitor, full curve, poor fit]"
same,Potency,[2],active: 44.7 µM
same,Potency,[3],inactive
same,Potency,[4],inactive
same,activation,[5],inconclusive: 44.4% [activator] [at 30.8 µM]
COc1ccc(C)cc1NC(=O)c1ccc2c(SCC(=O)O)c3c(nc2c1)CCCC3,Potency,[2],"inconclusive: 95.3 µM [inhibitor, partial curve, poor fit]"
same,Potency,[3],inactive
same,Potency,[4],"inconclusive: 7.57 µM [inhibitor, single point]"
same,Potency,[5],"inconclusive: 35.5 µM [activator, partial curve]"
CC(/C=C1\SC(=S)N(c2ccc(C(=O)O)cc2)C1=O)=C\c1ccccc1,Potency,[2],"inconclusive: 25.1 µM [inhibitor, partial curve]"
same,Potency,[3],"inconclusive: 112 µM [activator, partial curve, poor fit]"
same,Potency,[4],inactive
same,activation,[5],inactive: 18.6% [at 30.8 µM]
O=C1N(Cc2ccccc2)c2ccc(Cl)cc2C12OCCO2,Potency,[2],inactive
same,Potency,[3],"inconclusive: 89.1 µM [activator, partial curve, poor fit]"
same,Potency,[4],"inconclusive: 3.01 µM [inhibitor, partial curve, poor fit]"
same,activation,[5],inactive: 35.6% [at 30.8 µM]
CCOC(=O)C1=C(C)N=c2sc(=Cc3cc(Cl)c(OCC(=O)O)c(Cl)c3)c(=O)n2C1c1cccc(OC)c1 (configuration not stated),Potency,[6],"inconclusive: 21.5 µM [inhibitor, partial curve]"
same,Potency,[2],"inconclusive: 75.7 µM [inhibitor, partial curve]"
same,Potency,[3],inactive
same,Potency,[4],inactive
COc1ccc(C(C#N)=Cc2ccccc2OC)cc1,Potency,[2],inactive
same,Potency,[3],"inconclusive: 56.2 µM [activator, partial curve, poor fit]"
same,Potency,[4],"inconclusive: 8.49 µM [inhibitor, single point]"
same,Potency,[5],"inconclusive: 25.1 µM [activator, partial curve, poor fit]"
COc1cc2c(cc1OC)C1(C)N(CC2)C(C(C)=O)=NN1c1ccc(Cl)cc1 (configuration not stated),Potency,[2],inactive
same,Potency,[3],"inconclusive: 89.1 µM [activator, partial curve, poor fit]"
same,Potency,[4],"inconclusive: 8.49 µM [inhibitor, single point]"
same,Potency,[5],active: 3.55 µM
CC(/C=C/c1ccc(N(C)C)cc1)=N\N=C1\NC(=O)CC(C(=O)Nc2ccccc2)S1 (configuration not stated),Potency,[2],inactive
same,Potency,[3],"inconclusive: 89.1 µM [activator, partial curve, poor fit]"
same,Potency,[4],inactive
same,Potency,[5],"inconclusive: 14.1 µM [activator, partial curve]"
Cc1cc([N+](=O)[O-])c2[nH]c(C(=O)N/N=C/c3ccccc3C(=O)O)c(-c3ccccc3)c2c1,Potency,[2],active: 67.5 µM
same,Potency,[3],"inconclusive: 126 µM [activator, partial curve, poor fit]"
same,Potency,[4],"inconclusive: 6.75 µM [inhibitor, partial curve, poor fit]"
same,Potency,[5],inactive
C=C[C@](C)(O)CCC1C(=C)CC(OC(C)=O)C2C(C)(C)CCCC12C (some centres not stated),Potency,[7],active: 2.51 µM
same,Potency,[8],"inconclusive: 22.4 µM [inhibitor, partial curve]"
same,Potency,[2],"inconclusive: 17.7 µM [inhibitor, partial curve, poor fit]"
same,Potency,[3],inactive
same,Potency,[4],active: 11.1 µM
Cc1ccc(Sc2ncccc2C(=O)N(C)Cc2cccs2)c(C)c1,Potency,[2],inactive
same,Potency,[3],inactive
same,Potency,[4],"inconclusive: 37.9 µM [inhibitor, partial curve]"
same,activation,[5],inconclusive: 49.6% [activator]
C=C(C)COc1ccc(-c2[nH]ncc2-c2ccccc2OC)c(O)c1,Potency,[2],"inconclusive: 10 µM [inhibitor, partial curve]"
same,Potency,[3],inactive
same,Potency,[4],inactive
same,Potency,[5],"inconclusive: 8.91 µM [activator, partial curve, poor fit]"
CSc1ccc(CCNC(=O)c2csc3c2CCCCC3)cc1,Potency,[2],inactive
same,Potency,[3],inactive
same,outcome,[4],inactive [at 12.7 µM]
same,Potency,[5],inactive
C/C(=N\N(Cc1ccccc1)c1ccccc1)c1ccncc1,Potency,[2],"inconclusive: 63.1 µM [inhibitor, partial curve, poor fit]"
same,Potency,[3],"inconclusive: 50.1 µM [activator, partial curve, poor fit]"
same,Potency,[4],inactive
same,Potency,[5],"inconclusive: 0.0251 µM [activator, full curve]"
COc1cccc(-n2c(SCC(=O)Nc3ccc(F)cc3F)nc3c([nH]c4ccccc43)c2=O)c1,Potency,[2],inactive
same,Potency,[3],"inconclusive: 25.1 µM [activator, partial curve]"
same,Potency,[4],inactive
same,Potency,[5],"inconclusive: 0.398 µM [activator, full curve, poor fit]"
